Assay results as given in US20190010237A1 (AbbVie / Abbott, published 2019).

Molecular target: T1, Human PRLR expressed on HEK-293 cells (human, UniProt P16471 25-622)
T1 sequence: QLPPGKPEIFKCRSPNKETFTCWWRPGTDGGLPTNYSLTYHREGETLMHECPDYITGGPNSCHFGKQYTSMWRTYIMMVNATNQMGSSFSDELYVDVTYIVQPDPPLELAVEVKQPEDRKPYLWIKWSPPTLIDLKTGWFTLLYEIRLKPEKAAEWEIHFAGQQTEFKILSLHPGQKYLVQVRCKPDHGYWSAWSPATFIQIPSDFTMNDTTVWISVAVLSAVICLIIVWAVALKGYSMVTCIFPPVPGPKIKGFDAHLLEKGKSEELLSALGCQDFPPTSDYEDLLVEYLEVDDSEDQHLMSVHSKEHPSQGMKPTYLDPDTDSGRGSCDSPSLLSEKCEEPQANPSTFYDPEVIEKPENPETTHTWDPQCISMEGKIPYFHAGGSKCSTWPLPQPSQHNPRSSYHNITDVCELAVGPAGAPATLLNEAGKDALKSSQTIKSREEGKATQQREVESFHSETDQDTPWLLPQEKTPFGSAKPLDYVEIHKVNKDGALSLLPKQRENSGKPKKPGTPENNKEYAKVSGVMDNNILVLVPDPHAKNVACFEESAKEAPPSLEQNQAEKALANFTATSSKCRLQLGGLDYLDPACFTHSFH
Assay: cell-based or functional assay

B1: h16f-MMAE antibody drug conjugate (other)
heavy: EVQLVQSGAEVKKPGSSVKVSCKASGYTFTTYWMHWVRQAPGQGLEWIGEIDPSDSYSNYNQKFKDRATLTVDKSTSTAYMELSSLRSEDTAVYYCARNGGLGPAWFSYWGQGTLVTVSS[human IgG1 constant region omitted]
light: DIQMTQSPSSVSASVGDRVTITCKASQYVGTAVAWYQQKPGKSPKLLIYSASNRYTGVPSRFSDSGSGTDFTLTISSLQPEDFATYFCQQYSSYPWTFGGGTKVEIKRTVAAPSVFIFPPSDEQLKSGTASVVCLLNNFYPREAKVQWKVDNALQSGNSQESVTEQDSKDSTYSLSSTLTLSKADYEKHKVYACEVTHQGLSSPVTKSFNRGEC
modifications: MMAE (auristatin) drug-linker conjugated; sites not stated
With B1 the “6-Day Proliferation Assay IC50 (nM), HEK293/Human PRLR” value was 0.15 nM.
